Data taken from PubChem BioAssay AID1347165 (National Center for Advancing Translational Sciences (NCATS), 2019).
Among all 220,000 compounds or so, about 5,700 (2.6%) were called active. The shares of active, inactive and inconclusive entries below differ from those in the screen. The call rests on the fitted dose curve; in most records, active means well fitted inhibition curve with a large enough effect; inconclusive means small, poorly fitted or top-dose-only effect; inactive means no such curve, though single readings can be large or run the other way. Where the call is inconclusive, the potency comes from a doubtful curve fit.

These molecules were tested against Lysine-specific demethylase 5B (Homo sapiens) (UniProt Q9UGL1) (assay: Primary screen for KDM5B Histone Demethylases FDH-coupled qHTS). Details: FDH-coupled NADH fluorescence (FDH is formaldehyde dehydrogenase); activity change, negative = inhibition: at 57.7 µM (top of the series) unless noted.
Sequence of UniProt Q9UGL1 (Q9UGL1 whole entry, looked up): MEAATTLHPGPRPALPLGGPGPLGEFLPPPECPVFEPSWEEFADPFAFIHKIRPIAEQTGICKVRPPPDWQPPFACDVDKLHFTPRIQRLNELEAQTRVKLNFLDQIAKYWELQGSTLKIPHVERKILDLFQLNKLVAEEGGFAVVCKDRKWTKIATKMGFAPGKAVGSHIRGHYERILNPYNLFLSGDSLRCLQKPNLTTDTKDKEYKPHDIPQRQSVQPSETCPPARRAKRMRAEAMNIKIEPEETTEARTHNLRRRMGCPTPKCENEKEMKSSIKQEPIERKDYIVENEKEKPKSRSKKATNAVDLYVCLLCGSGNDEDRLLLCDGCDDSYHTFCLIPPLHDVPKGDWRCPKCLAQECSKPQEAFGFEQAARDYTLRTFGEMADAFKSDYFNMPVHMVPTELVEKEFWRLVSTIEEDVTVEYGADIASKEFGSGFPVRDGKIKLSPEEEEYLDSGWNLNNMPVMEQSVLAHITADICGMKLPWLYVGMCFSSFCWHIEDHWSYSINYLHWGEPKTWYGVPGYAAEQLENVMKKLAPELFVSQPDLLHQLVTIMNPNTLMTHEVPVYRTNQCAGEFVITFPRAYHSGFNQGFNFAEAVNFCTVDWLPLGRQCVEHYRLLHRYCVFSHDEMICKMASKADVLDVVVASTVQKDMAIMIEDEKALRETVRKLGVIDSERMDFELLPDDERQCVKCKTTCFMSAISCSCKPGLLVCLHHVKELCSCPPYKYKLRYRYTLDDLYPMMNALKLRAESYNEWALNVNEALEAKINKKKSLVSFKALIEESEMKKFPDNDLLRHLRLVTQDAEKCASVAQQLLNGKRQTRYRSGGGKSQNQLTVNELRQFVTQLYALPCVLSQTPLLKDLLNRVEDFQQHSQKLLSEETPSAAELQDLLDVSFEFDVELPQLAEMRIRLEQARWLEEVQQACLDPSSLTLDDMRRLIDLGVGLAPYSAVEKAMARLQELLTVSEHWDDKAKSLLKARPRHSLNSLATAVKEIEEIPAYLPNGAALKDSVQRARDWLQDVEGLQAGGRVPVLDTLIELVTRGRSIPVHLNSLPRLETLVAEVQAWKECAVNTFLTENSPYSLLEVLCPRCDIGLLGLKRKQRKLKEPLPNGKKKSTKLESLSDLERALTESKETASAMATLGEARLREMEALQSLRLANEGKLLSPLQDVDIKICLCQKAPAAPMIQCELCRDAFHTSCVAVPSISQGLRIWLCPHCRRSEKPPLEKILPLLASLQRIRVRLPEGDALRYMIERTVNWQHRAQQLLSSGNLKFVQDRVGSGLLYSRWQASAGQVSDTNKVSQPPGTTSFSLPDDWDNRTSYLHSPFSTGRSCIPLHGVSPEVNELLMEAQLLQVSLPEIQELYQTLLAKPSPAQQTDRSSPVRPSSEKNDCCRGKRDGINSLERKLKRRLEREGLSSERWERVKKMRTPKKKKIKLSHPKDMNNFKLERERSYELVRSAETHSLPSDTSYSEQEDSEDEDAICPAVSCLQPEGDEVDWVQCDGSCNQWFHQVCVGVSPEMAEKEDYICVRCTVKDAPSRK
Method in brief: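 Compound dilutions met 200 nM (final) KDM5BΔAP for 10 min at room temperature before substrate addition. The substrate mix held 12.5 µM H3K4me3 with cofactors 25 µM α-ketoglutarate and 50 µM Fe²⁺. NADH signal gain over 30 min defined activity.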
Further: nearly all actives have a fitted effect of over 70% in size.
Potency means the concentration at half of the fitted maximal effect; tags describe the fitted curve by direction and shape.
Wherever activity change, negative = inhibition is given: 0% is about no effect.

Structure (SMILES)	Potency	activity change, negative = inhibition
CCC(C(=O)Nc1cccc(-c2cn3cccnc3n2)c1)c1ccccc1 (configuration not stated)	inconclusive: 31.6 µM [inhibitor, partial curve, poor fit]	–
Cc1ccc(-n2nc(-c3c(C)nc4scc(CC(=O)NC(C)C)n4c3=O)cc2C)cc1	inconclusive: 35.5 µM [inhibitor, partial curve, poor fit]	–
OCc1ccc(-c2cc(-c3ccncc3)c3cncn3c2)cc1	inconclusive: 31.6 µM [inhibitor, partial curve]	–
COCCN[C@@H]1C[C@@H]2c3[nH]c4ccccc4c3C[C@@H](C(=O)OC)N2[C@H](c2ccc(F)c(F)c2)C1	active: 12.6 µM	–
CCc1ccc(C(=O)C(C)Sc2nc3ccccc3c(=O)n2CCC(=O)OC)cc1 (configuration not stated)	–	inactive: -1.17%
COc1ccc(NC(=O)c2ccc3c(c2)N(C)C2CCCCCN2C3=O)c(OC)c1 (configuration not stated)	inconclusive: 22.4 µM [inhibitor, single point]	–
CN(Cc1ccccc1)c1nc(-c2ccc(F)cc2)cc(C(F)(F)F)n1	inconclusive: 25.1 µM [inhibitor, partial curve, poor fit]	–
Fc1cccc(-c2cnc(Nc3cncnc3)c3c2CCO3)c1	–	inactive: -26.3% [at 86.2 µM]
Cc1coc2cc3oc(=O)c(CC(=O)NCCc4ccccc4F)c(C)c3cc12	inconclusive: 2.82 µM [inhibitor, partial curve, poor fit]	–
O=C(Cn1c(=O)n(Cc2ccc(C(=O)NCc3ccccc3Cl)cc2)c(=O)c2ccccc21)Nc1ccc(F)cc1	–	inconclusive: -38% [inhibitor]
COc1ccc(NC(=O)c2ccc(-c3nnc4ccc(NC(=O)C5CC5)cn34)cc2)cc1	inconclusive: 28.2 µM [inhibitor, single point]	–
CN(C(=O)c1ccc2c(c1)NC(C)(COCC1CC1)CO2)c1ccccc1 (configuration not stated)	–	inactive: 9.03% [at 86.2 µM]
Cc1cc(C)c2oc(-c3ccc(NC(=O)c4cc(Br)ccc4Cl)cc3)nc2c1	inconclusive: 28.2 µM [inhibitor, partial curve, poor fit]	–
COCCOc1ncccc1-c1noc([C@@H]2CCCN2Cc2ccc(C(=O)O)cc2)n1	inconclusive: 56.2 µM [inhibitor, single point]	–
Cc1ccc(NC(=O)CCc2nc3cccnc3n2-c2ccccc2)cc1	–	inconclusive: -32.4% [inhibitor]
O=C(Nc1cccc(Cl)c1Cl)C12CC3CC(CC(C3)C1)C2	–	inactive: 11.7%
Cc1cccc(N2CCN(c3ncnc4onc(-c5ccc(F)cc5)c34)CC2C)c1 (configuration not stated)	inconclusive: 35.5 µM [inhibitor, partial curve, poor fit]	–
